# Measured values as given in PMC4336329 (PLoS ONE, 2015).
# Screen size: about 310,000 compounds; about 2,200 (0.71%) showed an effect of 50% or more. Effects have a minus sign here. Some of the results follow.
# Molecular target: human ether-à-go-go-related gene (hERG) potassium channel (human, UniProt Q12809)
# Experiment: primary screen, population patch clamp on CHO cells stably expressing hERG
# human ether-à-go-go-related gene (hERG) potassium channel, sequence (Q12809 whole entry, looked up): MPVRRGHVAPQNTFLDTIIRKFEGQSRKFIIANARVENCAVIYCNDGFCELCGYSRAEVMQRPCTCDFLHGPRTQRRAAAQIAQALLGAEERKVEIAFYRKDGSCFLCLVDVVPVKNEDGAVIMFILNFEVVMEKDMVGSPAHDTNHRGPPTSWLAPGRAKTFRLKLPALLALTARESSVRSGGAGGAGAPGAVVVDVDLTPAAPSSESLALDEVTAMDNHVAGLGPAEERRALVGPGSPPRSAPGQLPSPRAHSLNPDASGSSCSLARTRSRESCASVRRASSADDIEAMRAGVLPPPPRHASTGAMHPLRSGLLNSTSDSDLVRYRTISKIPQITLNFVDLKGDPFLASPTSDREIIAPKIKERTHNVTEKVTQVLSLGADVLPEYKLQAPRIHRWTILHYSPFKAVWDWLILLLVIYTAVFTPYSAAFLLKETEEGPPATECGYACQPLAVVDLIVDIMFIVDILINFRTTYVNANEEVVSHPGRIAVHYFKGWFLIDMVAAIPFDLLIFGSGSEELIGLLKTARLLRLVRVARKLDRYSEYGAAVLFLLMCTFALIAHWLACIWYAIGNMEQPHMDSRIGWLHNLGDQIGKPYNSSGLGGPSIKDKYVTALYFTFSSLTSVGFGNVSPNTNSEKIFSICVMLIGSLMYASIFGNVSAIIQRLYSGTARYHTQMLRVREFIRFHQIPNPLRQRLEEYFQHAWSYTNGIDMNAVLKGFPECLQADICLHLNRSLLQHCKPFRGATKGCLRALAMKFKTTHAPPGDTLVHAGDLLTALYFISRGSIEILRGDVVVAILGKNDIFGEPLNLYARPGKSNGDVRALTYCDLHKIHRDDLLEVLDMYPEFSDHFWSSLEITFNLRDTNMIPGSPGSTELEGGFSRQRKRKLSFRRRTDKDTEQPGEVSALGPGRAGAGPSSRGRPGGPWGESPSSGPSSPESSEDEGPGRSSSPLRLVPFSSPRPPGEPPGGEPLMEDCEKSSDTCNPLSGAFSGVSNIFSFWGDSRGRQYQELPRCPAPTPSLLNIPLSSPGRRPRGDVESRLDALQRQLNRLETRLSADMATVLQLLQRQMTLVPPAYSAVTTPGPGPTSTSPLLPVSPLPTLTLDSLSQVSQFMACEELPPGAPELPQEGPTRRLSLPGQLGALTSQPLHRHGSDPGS
row,Compound,"hERG current change (%, negative = inhibition) at 1uM [%]"
1,COc1ccc(-n2c(NN)nc3sc4c(c3c2=O)CCCC4)cc1,-9.75
2,Cc1ccc(NC(=O)C(=O)NN)cc1,11.5
3,C=CCn1c(SCn2nnc3ccccc3c2=O)nnc1C1CCCCC1,6.45
4,CC(C)OC(=O)CCC1(C(=O)O)CCC(=O)NC1 (centres unmarked),11.5
5,Cc1c(Br)cc(C(=O)N2CCN(CCO)CC2)c(C)c1C,16.8
6,O=C(CSc1n[nH]c(=O)n1C1CC1)c1ccc2c(c1)OCCO2,11.3
7,O=C(Cn1cnc2c(nnn2-c2cccc(Cl)c2)c1=O)N1CCCC1,3.72
8,O=C(CNc1ccccc1-c1ccccc1)NCc1ccccc1,-1.05
9,CSc1ccccc1NC(=O)COc1ccc(Cl)cc1,3.28
10,Cc1ccc(NC(=S)NC(NC(=O)c2ccccc2)C(Cl)(Cl)Cl)c(C)c1 (centres unmarked),5.37
11,COc1ccc(CC(=O)OC2CCCN(C)C2)cc1.Cl (centres unmarked),7.36
12,CCCCn1c(N)c(N(CC(C)C)C(=O)c2c(CC)noc2C)c(=O)[nH]c1=O,5.66
13,COc1ccccc1C(=O)COC(=O)c1ccc(N(C)C)cc1,20.6
14,COCCN(C(=O)COC(=O)Cc1cccc(OC)c1)c1c(N)n(CC(C)C)c(=O)[nH]c1=O,5.44
15,CCCCCC(=O)N1CC2(C)CN(C(=O)CCCCC)CC(C)(C1)C2=O,-5.99
16,CC(C)(C)C(=O)NC(=S)Nc1cc(C(=O)O)ccc1Cl,4.69
17,Cc1cccc(N2CCN(C(=O)COc3ccc4c(c3)CCC4)CC2C)c1 (centres unmarked),8.31
18,CC(C)CCNC(=O)C1CC(c2ccccc2[N+](=O)[O-])=NO1 (centres unmarked),5.5
19,O=C(CSc1nnnn1C1CCCC1)N1CCCc2ccccc21,13.3
20,COC(=O)c1cccc(C(=O)N2CCCC(C(=O)c3cccc(OC(C)C)c3)C2)c1 (centres unmarked),5.81
21,CCN1CCc2c(C#N)c(N3CCOCC3)nc(N3CCOCC3)c2C1,14.5
22,Cc1cc(-c2ccccc2)nn1-c1nc2c(c(=O)[nH]c(=O)n2C)n1C,5.39
23,Cc1ccc(OCC(=O)Nc2ccc(N3CCOCC3)cc2)c([N+](=O)[O-])n1,12.2

row,Compound,"hERG current change (%, negative = inhibition) at 1uM [%]"
1,CCOC(=O)C1=C(C)N=C2c3ccccc3C(=O)C2C1c1ccc(Br)cc1 (centres unmarked),3.1
2,CS(=O)(=O)N1CCC(C(=O)Nc2cc(Cl)c(Cl)cc2Cl)CC1,14.7
3,O=C(Nc1ccccc1)c1ccc(OC(=O)c2cc3ccccc3o2)cc1,21.6
4,COc1cc2oc3ccccc3c2cc1N(CC(=O)N(C)C)S(=O)(=O)c1ccccc1,0.641
5,O=C(CCCNS(=O)(=O)c1ccc(Br)cc1)N1CC[C@@]2(O)CCCC[C@H]2C1,-2.19
6,O=C(Nc1ccccc1C(=O)NCCCN1CCOCC1)c1cccc([N+](=O)[O-])c1,-21.2
7,CC1CCN(CC(=O)NNC(=O)c2cccc(Br)c2)CC1,5.79
8,CC(=O)c1c(C)[nH]c(C(=O)NCc2ccccc2Cl)c1C,8.99
9,CCN(CC)S(=O)(=O)c1ccc(C(=O)Oc2ccc3c(c2)OCO3)cc1,-0.676
10,Cn1c(=O)c2c(ncn2CC(=O)N/N=C/C=C/c2ccco2)n(C)c1=O,12.4
11,Cn1c(SCC(N)=O)nnc1-c1cnccn1,14.8
12,Nc1ccc(O)c([N+](=O)[O-])c1,16.7
13,O=S(=O)(c1ccc2ccccc2c1)N1CCN(S(=O)(=O)N2CCOCC2)CC1,4.9
14,COc1cccc(N(CC(=O)NC(C)c2ccccc2)S(C)(=O)=O)c1 (centres unmarked),16.9
15,CCOc1ccc(/C=C/C(=O)Nc2ccc3[nH]c(=O)[nH]c3c2)cc1,13
16,Cc1ccccc1NC(=O)CSc1nnc(Cc2cccn2C)n1-c1ccc(F)cc1,8.11
17,CN(c1cccc(NC(=O)Nc2ccc(Cl)cc2)c1)S(C)(=O)=O,-2.89
18,COC(=O)CN1C(=O)N/C(=C/c2ccc(OC)c(C)c2OC)C1=O,18.4
19,CC(NC(=O)c1ccc(Br)s1)c1ccncc1 (centres unmarked),6.83
20,CCOC(=O)C1CCN(S(=O)(=O)c2ccc(Cl)cc2OC)CC1,-24.7
21,COc1ccc(C2(c3ccc(OC)cc3)NC(=O)N(CC(=O)Nc3ccc(OC(F)F)cc3)C2=O)cc1,9.33
22,Cc1ccc(N2C(=O)CC(Cc3ccc(Cl)cc3)C2=O)cc1 (centres unmarked),10.8
23,CC(=O)Nc1ccc(Sc2ccccc2C(=O)Nc2ccc(F)cc2)cn1,22.9

row,Compound,"hERG current change (%, negative = inhibition) at 1uM [%]"
1,Cc1nn(CC#N)c(=O)n1N(C)c1ncc(C(F)(F)F)cc1Cl,11.2
2,O=C(CN1CCN(c2ncccn2)CC1)N1CCc2ccccc21,14.4
3,NS(=O)(=O)c1ccc(NC(=O)CN2CCCN(S(=O)(=O)c3ccc(F)cc3)CC2)cc1,12.4
4,COc1ccc(NC(=O)/C(C#N)=C/c2ccc3c(c2)n(C)c(=O)n3C)cc1,5.03
5,N#Cc1ccsc1NC(=O)COC(=O)c1ccc2ccccc2c1,0.816
6,COc1cc2nc(C)sc2cc1SC,-9.35
7,O=C(Nc1ccccc1)c1ccc(-c2ccccc2Cl)o1,15.7
8,COc1ccc(-c2nc(CS(=O)(=O)CC(=O)NC3CCC(C)CC3)c(C)o2)cc1 (centres unmarked),13.1
9,O=C(Nc1nc(SCc2ccc(F)cc2)ns1)c1ccco1,2.86
10,Cc1ccc(C(C)NC(=O)C2CCCC2)cc1C (centres unmarked),7.58
11,CCOC(=O)C(C)Oc1c(Br)cc(C2NC(=O)NC(C)=C2C(C)=O)cc1OCC (centres unmarked),6.76
12,Cc1cc(N2CCN(Cc3nc(-c4ccc(F)cc4)oc3C)CC2)cc(C)n1,-27.2
13,CC(C)COc1ccc(C(=O)N/C(=C\c2cccc([N+](=O)[O-])c2)C(=O)OC(C)C)cc1,5.91
14,CCCC(=O)Nc1nnc(CC(=O)OCC)s1,5.27
15,CC(C)COc1ccc(C(=O)OCCN2CCCCC2)cc1.Cl,4.6
16,O=C1c2cccnc2C(=O)N1C1CCCCC1,11.7
17,CC(C)(C)c1ccc(C(=O)NCCC(=O)NC2=NCCS2)cc1,8.26
18,Cc1cccnc1NC(=O)CCNC(=O)c1ccc(Br)cc1,11.4
19,CC(/C=N/NC(=O)c1cccnc1)=C\c1ccccc1,7.2
20,O=C(NCc1nc(-c2ccc(C(F)(F)F)cc2)no1)Nc1ccc(OC(F)(F)F)cc1,10.9
21,CNC(=O)COC(=O)c1cccc(S(=O)(=O)N2CCN(c3ccc(F)cc3)CC2)c1,12.3
22,CC1(C)CC(=O)C(N=Nc2ccc(C(F)(F)F)cc2[N+](=O)[O-])=C(O)C1,13
23,CC(C)(C)OC(=O)NC(Cc1ccccc1)C(=O)NC(CSC1CCCCO1)C(=O)NN (centres unmarked),13.9

row,Compound,"hERG current change (%, negative = inhibition) at 1uM [%]"
1,O=C(c1ccco1)N1CCN(c2cc(=O)n(C3CCCCC3)c(=O)[nH]2)CC1,0.353
2,CN(c1ccccc1)S(=O)(=O)c1cccc(C(=O)NCCc2c[nH]c3ccccc23)c1,5.58
3,CN1CCC(=C2c3ccccc3CCc3sccc32)CC1.O=C(O)/C=C\C(=O)O,-1.45
4,O=C(CSc1ccccc1)N1CCN(c2ccc(F)cc2)CC1,9.59
5,CCOc1ccccc1NC(=O)c1ccccc1-c1ccccc1,5.88
6,O=c1c2ccccc2[nH]c2ccccc12,17.9
7,CS(=O)(=O)N(CC(=O)NCCSCc1c(F)cccc1Cl)c1cccc([N+](=O)[O-])c1,11.6
8,O=C(c1ccc(Cl)cc1)N1CCCCC(Cl)C1=O (centres unmarked),4.3
9,COc1ccc(-c2nc3ccccc3n2OC(=O)N(C)C)cc1,6.61
10,O=c1c2ccccc2nc(-c2ccccc2)n1-c1ccccc1O,17.1
11,CCOc1ccc(C2=C(C=C(C#N)C#N)C(c3ccccc3)c3ccccc3O2)cc1 (centres unmarked),16.8
12,O=C(Cc1ccsc1)NCC(c1ccco1)N1CCCCC1 (centres unmarked),-3.2
13,O=C(NNC(=S)Nc1ccccc1)c1ccncc1,17.8
14,CNC(=O)NNC(=O)c1nc(-c2ccccc2)c(C)o1,14.2
15,COc1ccc(C2(c3ccc(OC)cc3)NC(=O)N(CC(=O)NC(C)C)C2=O)cc1,9.81
16,O=S(=O)([O-])c1cc(O)c2c(O)c(N=Nc3cc(Cl)ccc3O)c(S(=O)(=O)[O-])cc2c1.[Na+],7.13
17,Cc1cc(N/N=C2\CC(C)CC(C)(C)C2)nc2ccccc12 (centres unmarked),11
18,COc1cc(Nc2nc3ccccc3nc2NS(=O)(=O)c2ccc([N+](=O)[O-])cc2)cc(OC)c1OC,-2.15
19,COc1ccc(C)cc1-n1nnnc1SCn1nnc2ccccc2c1=O,6.34
20,CC(=O)NC(=S)Nc1ccc(NC(=O)COc2ccc(Cl)cc2)cc1,13.5
